Test results published in the supplement of paper PMC6206098.
± gives the uncertainty stated by the source. Shown are siRNA guide strands that differ only in the seed, positions 2 to 7.

Columns and labels:
3LL = assay: cell viability relative to siNT1 control; higher = less toxic; conditions: concentration: 10 nM; 96 h; Mus musculus;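 note: Luminescence-based viability of cells reverse transfected in 384-well plates with lipid-complexed siRNAs built on a non-toxic 19mer backbone whose passenger strand carries 2′-O-methyl groups at positions 1 and 2, triplicates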
H460 = assay: cell viability relative to lipid-only control; HeyA8 human ovarian and H460 human lung cancer; M565 mouse liver and 3LL mouse lung cancer; siNT1 is a non-toxic control siRNA; higher = less toxic; conditions: concentration: 10 nM; 96 h; Homo sapiens
HeyA8 = assay: as above; conditions: concentration: 10 nM; 96 h; Homo sapiens
M565 = assay: as above; conditions: concentration: 10 nM; 96 h; Mus musculus
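Throughout, for cell viability relative to lipid-only control: reverse lipid transfection in 384-well plates, in triplicate, of duplexes on a non-toxic 19mer backbone with passenger strand 2′-O-methylated at positions 1 and 2, luminescence viability read-out.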

| Sequence | cell viability (3LL) [%] | cell viability (H460) [%] | cell viability (HeyA8) [%] | cell viability (M565) [%] |
| --- | --- | --- | --- | --- |
| UUAAUCAACAUGUAAACCAAA | 97.1 ± 7.3 | 80.8 ± 13 | 86.5 ± 3.1 | 85.1 ± 19 |
| UGCAGGAACAUGUAAACCAAA | 78.2 ± 5.9 | 35.6 ± 1.1 | 23.9 ± 1.8 | 46.8 ± 1.2 |
| UCGAUCGACAUGUAAACCAAA | 93.9 ± 11 | 79.5 ± 20 | 80.9 ± 9.8 | 62.9 ± 0.5 |
| UCCGGCUACAUGUAAACCAAA | 63.2 ± 14 | 43.2 ± 6.3 | 20.8 ± 2.8 | 51.4 ± 12 |
| UAAGCAUACAUGUAAACCAAA | 79.2 ± 7 | 61.6 ± 6.8 | 79.1 ± 6.9 | 43 ± 3.1 |
| UUCCUAUACAUGUAAACCAAA | 24 ± 8.3 | 76.8 ± 11 | 93 ± 11 | 84.8 ± 9.3 |
| UCCUGUUACAUGUAAACCAAA | 83.9 ± 12 | 70.4 ± 9 | 63.3 ± 3.5 | 43.2 ± 4.7 |
| UAAAGCCACAUGUAAACCAAA | 38.5 ± 1.3 | 57.7 ± 4.7 | 60.2 ± 5.1 | 10.6 ± 4.3 |
| UUAUGAAACAUGUAAACCAAA | 64.5 ± 9.9 | 78.7 ± 7.7 | 91.1 ± 4.6 | 72.2 ± 12 |
| UUUACUCACAUGUAAACCAAA | 92.2 ± 6 | 95.4 ± 6 | 73.2 ± 1.7 | 40.3 ± 7.5 |
| UGUAGCCACAUGUAAACCAAA | 3.74 ± 1.6 | 18.6 ± 3.1 | 20.9 ± 2.8 | 7.36 ± 2.2 |
| UGUAGUUACAUGUAAACCAAA | 68.4 ± 8.4 | 43.9 ± 5.7 | 37.9 ± 2.3 | 36.4 ± 5.1 |
| UUCAGCUACAUGUAAACCAAA | 11.6 ± 1.2 | 34.2 ± 2.3 | 33.7 ± 5.6 | 49 ± 2.4 |
| UGCGGACACAUGUAAACCAAA | 28.9 ± 5 | 22.4 ± 0.49 | 18.1 ± 1.3 | 13.2 ± 2.9 |
| UGUUUUUACAUGUAAACCAAA | 85.1 ± 3 | 62.1 ± 5.3 | 64.2 ± 1.1 | 94.8 ± 9.9 |
| UGACUCAACAUGUAAACCAAA | 48.7 ± 5.7 | 62.5 ± 5.9 | 47.7 ± 3.2 | 18 ± 5.2 |
| UGUCCCUACAUGUAAACCAAA | 30.3 ± 7.8 | 24.3 ± 1.7 | 22.1 ± 4.5 | 3.17 ± 1.1 |
| UAGUCUCACAUGUAAACCAAA | 4.77 ± 0.94 | 54.9 ± 11 | 32.3 ± 4.3 | 9.31 ± 2.7 |
| UAUUCAGACAUGUAAACCAAA | 111 ± 14 | 67.5 ± 3.7 | 92.5 ± 14 | 105 ± 3.7 |
| UCAAGUCACAUGUAAACCAAA | 48.4 ± 9.8 | 55.7 ± 5.9 | 55.6 ± 10 | 20.6 ± 0.5 |

| Sequence | cell viability (3LL) [%] | cell viability (H460) [%] | cell viability (HeyA8) [%] | cell viability (M565) [%] |
| --- | --- | --- | --- | --- |
| UUUACAAACAUGUAAACCAAA | 94.6 ± 5.1 | 78.3 ± 8.8 | 100 ± 7.6 | 94.6 ± 3.4 |
| UCCCGAAACAUGUAAACCAAA | 109 ± 18 | 79.3 ± 16 | 94.6 ± 12 | 90 ± 35 |
| UUCACGCACAUGUAAACCAAA | 58.8 ± 15 | 38.2 ± 3.9 | 71.4 ± 9.5 | 42.4 ± 12 |
| UUGAUGAACAUGUAAACCAAA | 79.9 ± 5.9 | 66 ± 7.6 | 71.2 ± 10 | 104 ± 7.4 |
| UUGGCGGACAUGUAAACCAAA | 24.5 ± 1.1 | 14.6 ± 1.9 | 5.05 ± 0.42 | 26.3 ± 11 |
| UCGCGUAACAUGUAAACCAAA | 91.6 ± 18 | 66.9 ± 11 | 86 ± 6 | 81.9 ± 20 |
| UGCAUGUACAUGUAAACCAAA | 69 ± 13 | 63.9 ± 7.4 | 58.6 ± 2.1 | 20.6 ± 8.3 |
| UCCCACGACAUGUAAACCAAA | 111 ± 28 | 53 ± 10 | 100 ± 14 | 57.1 ± 9.7 |
| UGCAGAAACAUGUAAACCAAA | 83.3 ± 7.8 | 61.2 ± 8 | 68 ± 2.1 | 64.1 ± 3.7 |
| UACCUUGACAUGUAAACCAAA | 87.8 ± 3.1 | 69.8 ± 12 | 90.5 ± 6.4 | 64.4 ± 17 |
| UAGGGGUACAUGUAAACCAAA | 25.4 ± 1.6 | 31.7 ± 2 | 29 ± 3 | 21.3 ± 4.2 |
| UGUCCGUACAUGUAAACCAAA | 71.1 ± 3.5 | 49.7 ± 9 | 88.3 ± 5.5 | 19.3 ± 2.5 |
| UAAAUCCACAUGUAAACCAAA | 56.6 ± 7.4 | 62 ± 6.6 | 72.3 ± 5.9 | 69.8 ± 12 |
| UUCUCAAACAUGUAAACCAAA | 89.8 ± 13 | 51.9 ± 4.8 | 101 ± 4 | 90.2 ± 16 |
| UCCAACUACAUGUAAACCAAA | 22.1 ± 4.1 | 46 ± 2.1 | 10 ± 1.7 | 14.4 ± 0.37 |
| UUAGUUUACAUGUAAACCAAA | 101 ± 6.4 | 75.4 ± 11 | 87.8 ± 5.9 | 104 ± 12 |
| UUCUGAUACAUGUAAACCAAA | 35.1 ± 6 | 71.5 ± 4.7 | 63.5 ± 11 | 55.7 ± 4.5 |
| UGCCUCUACAUGUAAACCAAA | 48 ± 4.7 | 39.4 ± 1.8 | 61.1 ± 4.4 | 4.18 ± 1.1 |
| UUAGGCUACAUGUAAACCAAA | 44.1 ± 3.3 | 52.2 ± 4.9 | 37.8 ± 4.2 | 43.8 ± 9.5 |
| UUGCCGAACAUGUAAACCAAA | 73.5 ± 4.2 | 81.4 ± 5.7 | 96.9 ± 4.8 | 54.4 ± 9.2 |

| Sequence | cell viability (3LL) [%] | cell viability (H460) [%] | cell viability (HeyA8) [%] | cell viability (M565) [%] |
| --- | --- | --- | --- | --- |
| UUCGAUGACAUGUAAACCAAA | 99.9 ± 27 | 68.4 ± 10 | 90 ± 8.7 | 82.5 ± 3 |
| UCUCACCACAUGUAAACCAAA | 82.2 ± 18 | 27.1 ± 4.3 | 70.1 ± 3.3 | 29.7 ± 11 |
| UGAAGUAACAUGUAAACCAAA | 100 ± 13 | 71.2 ± 8.7 | 82.8 ± 5.7 | 56.9 ± 4.3 |
| UCAACUUACAUGUAAACCAAA | 93.7 ± 20 | 54 ± 1.7 | 90 ± 11 | 74.4 ± 14 |
| UUAGGGUACAUGUAAACCAAA | 66.9 ± 7.9 | 63.8 ± 4.3 | 57.4 ± 2.8 | 16.8 ± 4.8 |
| UGACUGAACAUGUAAACCAAA | 50.3 ± 12 | 46.4 ± 5 | 40 ± 2.3 | 58.6 ± 6.7 |
| UAUGGCAACAUGUAAACCAAA | 109 ± 6.5 | 67.6 ± 7.1 | 90.2 ± 8 | 50.6 ± 7.4 |
| UCGCUGCACAUGUAAACCAAA | 36.9 ± 8.1 | 68.8 ± 2.8 | 30.8 ± 6.1 | 9.85 ± 0.64 |
| UAAGAGUACAUGUAAACCAAA | 70.3 ± 1.1 | 68.7 ± 2.9 | 67.3 ± 9.4 | 61 ± 2.7 |
| UGACACGACAUGUAAACCAAA | 61.7 ± 6.8 | 52.4 ± 8 | 78.5 ± 14 | 42 ± 16 |
| UACAUCUACAUGUAAACCAAA | 31.6 ± 3.3 | 72.4 ± 4.7 | 7.45 ± 1.9 | 31.8 ± 9.5 |
| UCCAGGUACAUGUAAACCAAA | 88.5 ± 28 | 29.5 ± 2.6 | 10.3 ± 1.5 | 10.9 ± 2.5 |
| UCCUUCAACAUGUAAACCAAA | 93.7 ± 15 | 77 ± 8.2 | 78 ± 5.2 | 84 ± 1.1 |
| UACUGAUACAUGUAAACCAAA | 78.7 ± 6.7 | 96.5 ± 6.8 | 78.5 ± 7.1 | 45.9 ± 7.1 |
| UGUUAUAACAUGUAAACCAAA | 88.2 ± 8.5 | 85.5 ± 16 | 91.7 ± 7.8 | 52.3 ± 18 |
| UAAAUCUACAUGUAAACCAAA | 108 ± 16 | 78.5 ± 15 | 93.1 ± 4.8 | 109 ± 17 |
| UAACCCAACAUGUAAACCAAA | 83.4 ± 1.2 | 80.7 ± 5.5 | 76.6 ± 5.5 | 52.3 ± 4.6 |
| UUAUGGUACAUGUAAACCAAA | 30.4 ± 2.1 | 36.8 ± 3.2 | 16.2 ± 1.4 | 16.8 ± 2.9 |
| UUAAUGGACAUGUAAACCAAA | 31.6 ± 1.6 | 58.1 ± 6.2 | 77.3 ± 7.9 | 16.2 ± 3.3 |
